Experimental data reported in patent US10800791B2, “Triazole ACC inhibitors and uses thereof” (Gilead Apollo, LLC, priority 2015, dated 2020).
In brackets after ≈: the same amount, converted by molar mass. Read-outs that look alike come from different tables or passages of the source.

Experiments:
[1] = system: Fusarium moniliforme (Fm); experiment: Growth inhibition assay of fungal pathogens, Fm; format: cell-based; conditions: Fusarium verticillioides, 48 h, read-out: Concentration at 90% Inhibition Fm
Procedure: (§1) Compounds of the present invention were evaluated in a growth inhibition assay to determine the ability to control the growth of fungal pathogens, such as Botrtyis cinerea (Bc), Collectotrichum graminicola (Cg), Diplodia maydis (Dm), Fusarium moniliforme (Fm), Fusarium virguliforme (Fv), Phytophthora capsici (Pc), Rhizoctonia solani (Rs), and Septoria tritici (St).
(§2) Compounds to be tested were dissolved in DMSO at 2.5 mg/ml to produce compound stock solutions (“stocks”). Stocks were diluted with DMSO by a five-fold dilution in a 96-well stock plate, and two sets of final concentrations of 50, 10, and 2 ppm or 2, 0.4, and 0.08 ppm were obtained in vitro. A set of positive controls was also prepared, with various concentrations of Soraphen (2, 0.4, and 0.08 ppm), Metalaxyl (1.1, 0.22, and 0.04 ppm), and Metconazole (2, 0.4, and 0.08 ppm or 0.2, 0.04, and 0.008 ppm) after the five-fold dilutions. Negative controls on each plate included 2% DMSO, water, and a blank (media+2% DMSO).
(§3) Fungal spores were isolated from previously sub-cultured plates of Botrtyis cinerea (Bc), Collectotrichum graminicola (Cg), Diplodia maydis (Dm), Fusarium moniliforme (Fm), Fusarium virguliforme (Fv), Phytophthora capsici (Pc), and Septoria tritici (St). The isolated spores were diluted to individual concentrations with a 17% V8 liquid media. For Rhizoctonia solani (Rs) and Pythium irregulare, 1.5 mm mycelial plugs were used in place of spores and/4 Potato Dextrose Broth (PDB) was used for dilution. The spore concentrations and plug sizes were based on growth curves generated at 48 hours for each pathogen.
(§4) In a second 96-well plate, the spores or mycelial plugs, media, diluted compound solutions, and controls were combined. Once the compound was added, a true final concentration of compound in each well was measured by an OD600 reading, which adjusted for any compound precipitation that might have occurred in the well. Plate readings were repeated at both 24 and 48 hours. The blank negative control was used as a background subtraction. Additional visual ratings were performed at both 24 and 48 hours for checking on precipitation and confirming efficacy. Visual and OD600 ratings of the compounds at 48 hours were compared to the 2% DMSO negative control, and the percent of pathogen growth inhibition was determined based on those values.

fungal (fACC2) = fungal (fACC2) (UniProt Q00955); conditions: read-out: fACC2 (in vitro ACC2 Inhibition Assay, IC50), ADP-Glo, 5 nM ACC2, 20 μM ATP, 20 μM acetyl-CoA
Chain of UniProt Q00955 (Q00955 whole entry): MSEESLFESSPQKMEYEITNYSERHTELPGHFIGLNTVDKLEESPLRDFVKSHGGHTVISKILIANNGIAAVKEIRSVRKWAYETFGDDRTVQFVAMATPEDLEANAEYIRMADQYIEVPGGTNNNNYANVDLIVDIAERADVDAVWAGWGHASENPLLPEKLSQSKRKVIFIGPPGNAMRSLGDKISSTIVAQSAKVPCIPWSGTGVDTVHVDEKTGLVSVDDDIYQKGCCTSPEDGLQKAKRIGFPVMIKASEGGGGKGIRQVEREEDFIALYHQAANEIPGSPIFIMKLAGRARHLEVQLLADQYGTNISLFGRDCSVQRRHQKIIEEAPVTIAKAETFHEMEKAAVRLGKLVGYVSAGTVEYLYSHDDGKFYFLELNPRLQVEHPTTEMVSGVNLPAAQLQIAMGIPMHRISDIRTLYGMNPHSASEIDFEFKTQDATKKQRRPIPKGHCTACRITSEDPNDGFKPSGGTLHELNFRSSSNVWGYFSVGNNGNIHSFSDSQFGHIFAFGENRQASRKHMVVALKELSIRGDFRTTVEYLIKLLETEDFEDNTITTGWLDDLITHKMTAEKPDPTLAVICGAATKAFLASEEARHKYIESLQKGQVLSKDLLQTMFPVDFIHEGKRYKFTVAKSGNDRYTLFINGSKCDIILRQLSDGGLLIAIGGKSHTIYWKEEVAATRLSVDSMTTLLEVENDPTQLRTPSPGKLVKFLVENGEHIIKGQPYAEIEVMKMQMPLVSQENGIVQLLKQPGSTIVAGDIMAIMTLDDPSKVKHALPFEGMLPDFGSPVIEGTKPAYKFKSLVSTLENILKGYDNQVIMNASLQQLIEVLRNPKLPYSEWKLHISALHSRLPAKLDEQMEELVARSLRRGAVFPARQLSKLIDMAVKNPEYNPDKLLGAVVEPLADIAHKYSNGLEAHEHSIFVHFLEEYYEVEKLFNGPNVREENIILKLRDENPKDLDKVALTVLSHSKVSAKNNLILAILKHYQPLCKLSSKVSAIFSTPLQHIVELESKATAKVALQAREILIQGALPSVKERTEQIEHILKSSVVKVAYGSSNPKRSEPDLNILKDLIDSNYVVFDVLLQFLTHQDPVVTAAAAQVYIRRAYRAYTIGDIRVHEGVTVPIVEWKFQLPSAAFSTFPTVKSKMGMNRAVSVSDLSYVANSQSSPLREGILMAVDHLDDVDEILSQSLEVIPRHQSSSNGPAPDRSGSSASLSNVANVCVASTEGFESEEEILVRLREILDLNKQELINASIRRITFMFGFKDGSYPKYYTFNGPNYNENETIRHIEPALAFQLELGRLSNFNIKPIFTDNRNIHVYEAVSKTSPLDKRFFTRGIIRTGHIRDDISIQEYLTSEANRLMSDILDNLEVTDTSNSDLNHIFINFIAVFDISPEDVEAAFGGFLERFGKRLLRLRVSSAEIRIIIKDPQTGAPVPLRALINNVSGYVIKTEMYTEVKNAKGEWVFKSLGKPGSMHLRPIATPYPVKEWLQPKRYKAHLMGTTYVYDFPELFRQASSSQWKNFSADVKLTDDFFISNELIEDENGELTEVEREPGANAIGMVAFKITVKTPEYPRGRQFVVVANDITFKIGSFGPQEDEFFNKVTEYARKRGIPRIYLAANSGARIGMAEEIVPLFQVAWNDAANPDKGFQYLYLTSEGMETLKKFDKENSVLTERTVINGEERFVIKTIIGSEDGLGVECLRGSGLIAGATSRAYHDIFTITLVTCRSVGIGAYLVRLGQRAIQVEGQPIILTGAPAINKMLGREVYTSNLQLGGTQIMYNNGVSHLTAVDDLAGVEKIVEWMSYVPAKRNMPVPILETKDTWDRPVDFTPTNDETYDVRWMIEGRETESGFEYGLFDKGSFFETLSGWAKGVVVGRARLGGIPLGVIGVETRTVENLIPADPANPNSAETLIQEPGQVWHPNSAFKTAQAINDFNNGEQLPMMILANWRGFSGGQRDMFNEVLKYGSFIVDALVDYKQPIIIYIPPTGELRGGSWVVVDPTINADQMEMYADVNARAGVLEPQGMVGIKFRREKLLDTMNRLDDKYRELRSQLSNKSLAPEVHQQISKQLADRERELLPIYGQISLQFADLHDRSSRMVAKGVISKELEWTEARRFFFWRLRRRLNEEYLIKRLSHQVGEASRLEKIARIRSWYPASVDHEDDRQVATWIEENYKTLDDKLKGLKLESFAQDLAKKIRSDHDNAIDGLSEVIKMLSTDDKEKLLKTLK

Diplodia maydis (Dm) = experiment: Growth inhibition assay of fungal pathogens, Dm; format: cell-based; conditions: Stenocarpella maydis, 48 h, growth inhibition at 48 hours vs 2% DMSO control
Procedure: as §1, §2, §3, §4

Botrtyis cinerea (Bc) = experiment: Growth inhibition assay of fungal pathogens, Bc; format: cell-based; conditions: 48 h, growth inhibition at 48 hours vs 2% DMSO control
Procedure: as §1, §2, §3, §4

C. parapsilosis = experiment: Antifungal Activity Assay (broth microtiter MIC), C. parapsilosis; format: cell-based, Candida parapsilosis; conditions: Lodderomyces parapsilosis, ATCC22019, 48 h
Procedure: (§5) Compounds of the present invention were evaluated in an Antifungal Activity Assay. An exemplary procedure for the assay, which measures the susceptibility of various Candida species to antifungal compounds, follows. Compounds to be tested (including fluconazole and amphotericin B) were dissolved in DMSO to obtain a solution having a concentration of 1 mg/mL. These stock solutions were sterile filtered using a 0.22 um nylon syringe filter, then diluted in sterile water to achieve a final concentration of 128 μg/mL.
(§6) All species were grown from frozen stock by directly plating on to freshly prepared Sabouraud Dextrose agar (BD, Difco) and incubated overnight in ambient air at 35° C. for 24 h. A direct suspension was prepared in RPMI 1640+MOPS (Lonza, Biowhittaker) by taking individual colonies from the overnight cultures using sterile swabs soaked in sterile saline. The concentration of the suspension was determined using pre-determined standard curves. These suspensions were then diluted down to 5×10^3 CFU/mL to achieve a final concentration of 2.5×10^3 CFU/mL once added to the microtiter plate as per CLSI guidelines (M27-A3, Vol. 28 No. 14).
(§7) Broth microtiter MIC challenge plates were prepared following CLSI guidelines (M27-A3, Vol. 28 No. 14). The original CLSI guidelines focused on reading Candida MICs after 48 h of incubation. As reading after only 24 h offers a clear advantage of patient care, QC limits are being established for all drugs at 24 h. That being said there are no known interpretive breakpoints for amphotericin B at 24 h and the current fluconazole interpretive breakpoints are based on a 48 h reading. The MICs for the test compounds were recorded at 48 h. All MIC determinations were achieved by visually comparing the growth found in the antibiotic challenged wells to that of the growth control.

human (hACC2) = human (hACC2) (Homo sapiens, UniProt O00763); experiment: In vitro ACC inhibition assay (ADP-Glo), hACC2; format: biochemical; conditions: 5 nM ACC2, 20 μM ATP, 20 μM acetyl-CoA
Chain of UniProt O00763 (O00763 whole entry): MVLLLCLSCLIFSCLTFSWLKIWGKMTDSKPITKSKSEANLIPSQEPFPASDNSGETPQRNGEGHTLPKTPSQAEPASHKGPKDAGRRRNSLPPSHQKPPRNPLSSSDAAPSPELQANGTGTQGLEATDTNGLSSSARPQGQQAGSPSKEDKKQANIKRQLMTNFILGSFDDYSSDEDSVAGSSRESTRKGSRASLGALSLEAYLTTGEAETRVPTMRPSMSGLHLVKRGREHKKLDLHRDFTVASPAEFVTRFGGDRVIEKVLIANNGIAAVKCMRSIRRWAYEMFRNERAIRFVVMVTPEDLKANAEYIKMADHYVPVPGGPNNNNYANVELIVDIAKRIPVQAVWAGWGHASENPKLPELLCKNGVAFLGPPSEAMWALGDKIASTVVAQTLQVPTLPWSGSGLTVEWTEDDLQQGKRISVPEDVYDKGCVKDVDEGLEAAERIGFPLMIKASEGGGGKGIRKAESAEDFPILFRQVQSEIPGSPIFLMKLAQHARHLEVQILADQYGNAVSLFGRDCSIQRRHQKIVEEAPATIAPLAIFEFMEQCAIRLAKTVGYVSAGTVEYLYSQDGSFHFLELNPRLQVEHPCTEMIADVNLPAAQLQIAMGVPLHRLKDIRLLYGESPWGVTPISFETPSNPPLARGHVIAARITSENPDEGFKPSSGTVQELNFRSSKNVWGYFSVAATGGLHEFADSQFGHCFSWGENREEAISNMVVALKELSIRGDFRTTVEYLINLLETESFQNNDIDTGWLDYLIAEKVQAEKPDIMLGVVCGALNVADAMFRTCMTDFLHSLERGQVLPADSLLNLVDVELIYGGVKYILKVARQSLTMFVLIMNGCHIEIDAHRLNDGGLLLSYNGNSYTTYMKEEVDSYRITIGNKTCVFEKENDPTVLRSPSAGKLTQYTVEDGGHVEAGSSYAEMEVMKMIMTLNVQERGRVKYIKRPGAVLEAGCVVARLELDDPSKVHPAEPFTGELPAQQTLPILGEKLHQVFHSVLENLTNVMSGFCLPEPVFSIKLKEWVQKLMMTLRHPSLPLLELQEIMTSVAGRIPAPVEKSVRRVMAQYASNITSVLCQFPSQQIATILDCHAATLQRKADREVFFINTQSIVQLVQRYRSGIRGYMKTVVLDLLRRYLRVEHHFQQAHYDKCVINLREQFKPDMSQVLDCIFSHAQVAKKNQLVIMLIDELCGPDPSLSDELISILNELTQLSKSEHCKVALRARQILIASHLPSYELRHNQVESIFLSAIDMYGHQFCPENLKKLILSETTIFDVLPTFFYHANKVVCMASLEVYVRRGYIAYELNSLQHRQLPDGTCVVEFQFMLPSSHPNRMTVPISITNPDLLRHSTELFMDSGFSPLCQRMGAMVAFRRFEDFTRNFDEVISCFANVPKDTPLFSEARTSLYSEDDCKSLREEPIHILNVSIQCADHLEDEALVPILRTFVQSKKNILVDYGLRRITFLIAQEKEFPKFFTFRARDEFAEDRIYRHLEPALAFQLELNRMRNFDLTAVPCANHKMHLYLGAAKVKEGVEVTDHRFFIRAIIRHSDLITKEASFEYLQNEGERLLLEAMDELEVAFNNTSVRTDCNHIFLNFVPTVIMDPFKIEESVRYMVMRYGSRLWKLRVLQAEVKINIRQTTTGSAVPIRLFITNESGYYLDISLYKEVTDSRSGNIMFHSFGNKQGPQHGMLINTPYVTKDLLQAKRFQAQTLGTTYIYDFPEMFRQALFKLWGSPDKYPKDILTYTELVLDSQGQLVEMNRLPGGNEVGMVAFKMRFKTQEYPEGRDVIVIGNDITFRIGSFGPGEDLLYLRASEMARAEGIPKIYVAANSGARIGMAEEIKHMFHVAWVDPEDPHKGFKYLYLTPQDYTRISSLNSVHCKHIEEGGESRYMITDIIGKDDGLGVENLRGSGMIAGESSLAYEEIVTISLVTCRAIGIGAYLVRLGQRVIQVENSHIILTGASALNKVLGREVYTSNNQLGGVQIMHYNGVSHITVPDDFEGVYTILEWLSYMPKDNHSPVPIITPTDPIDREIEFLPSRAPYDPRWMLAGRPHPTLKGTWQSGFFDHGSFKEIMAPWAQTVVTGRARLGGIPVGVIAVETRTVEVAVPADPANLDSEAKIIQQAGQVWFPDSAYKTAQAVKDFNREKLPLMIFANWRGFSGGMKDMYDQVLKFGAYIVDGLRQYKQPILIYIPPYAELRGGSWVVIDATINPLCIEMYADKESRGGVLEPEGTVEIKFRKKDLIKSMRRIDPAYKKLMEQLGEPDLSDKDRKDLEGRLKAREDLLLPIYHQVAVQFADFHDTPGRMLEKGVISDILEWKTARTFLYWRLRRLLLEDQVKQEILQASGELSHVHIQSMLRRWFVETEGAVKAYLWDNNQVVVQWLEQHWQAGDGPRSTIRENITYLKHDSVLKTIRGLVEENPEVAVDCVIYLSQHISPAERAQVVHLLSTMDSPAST
Procedure: The detailed procedure is as follows. […] 10 μL ADP glo reagent was added. […] 20 μL kinase detection reagent was added.

Septoria tritici (St) = experiment: Growth inhibition assay of fungal pathogens, St; format: cell-based; conditions: Zymoseptoria tritici, 48 h, growth inhibition at 48 hours vs 2% DMSO control
Procedure: as §1, §2, §3, §4

C. albicans = experiment: Antifungal Activity Assay (broth microtiter MIC), C. albicans; format: cell-based; conditions: Candida albicans, ATCC90028, 48 h
Procedure: as §5, §6, §7

[2] = system: Fusarium virguliforme (Fv); experiment: Growth inhibition assay of fungal pathogens, Fv; format: cell-based; conditions: 48 h
Procedure: as §1, §2, §3, §4

[3] = system: Phytophthora capsici (Pc); experiment: Growth inhibition assay of fungal pathogens, Pc; format: cell-based; conditions: 48 h
Procedure: as §1, §2, §3, §4

C. krusei = experiment: Antifungal Activity Assay (broth microtiter MIC), C. krusei; format: cell-based, Candida krusei; conditions: Pichia kudriavzevii, ATCC6258, 48 h
Procedure: as §5, §6, §7

Rhizoctonia solani (Rs) = experiment: Growth inhibition assay of fungal pathogens, Rs; format: cell-based; conditions: 48 h
Procedure: as §1, §2
as §3, with “The spore concentrations and plug sizes were based on growth curves generated at 48 hours for each pathogen.” left out
as §4, with “The blank negative control was used as a background subtraction. Additional visual ratings were performed at both 24 and 48 hours for checking on precipitation and confirming efficacy.” left out

[4] = system: Collectotrichum graminicola (Cg); experiment: Growth inhibition assay of fungal pathogens, Cg; format: cell-based; conditions: 48 h, growth inhibition at 48 hours vs 2% DMSO control
Procedure: as §1, §2, §3, §4

SMILES: COc1ccc(F)cc1[C@@H](O)Cn1c(=O)n(C(C)(C)C(=O)NC(C)C)c(=O)c2c(C)c(-n3nccn3)sc21 [Compound I-180]
- IC90 [1]: 0.08 µg/mL (≈ 0.147 µM)
- IC50 (fungal (fACC2); Table 2a): 0.4 to 1 nM
- IC50 (fungal (fACC2); Table 2b, additional results): 0.3 to 1 nM
- IC90 (Diplodia maydis (Dm); read-out: Concentration at 90% Inhibition Dm, Diplodia maydis): 0.4 µg/mL (≈ 0.734 µM)
- IC90 (Botrtyis cinerea (Bc); read-out: Concentration at 90% Inhibition Bc, Botrtyis cinerea): 0.4 µg/mL (≈ 0.734 µM)
- MIC (C. parapsilosis; read-out: MIC, C. parapsilosis ATCC 22019, Table 3a, 3 replicates, MIC recorded at 48 h): 0.25 to 1 µg/mL (≈ 0.459 to 1.84 µM)
- MIC (C. parapsilosis; read-out: MIC, C. parapsilosis ATCC 22019, Table 3b (additional results), 3 replicates, MIC recorded at 48 h): 1.01 to 2 µg/mL (≈ 1.85 to 3.67 µM)
- IC50 (human (hACC2); Table 2a): 5 to 10 nM
- IC50 (human (hACC2); Table 2b, additional results): 5 to 10 nM
- IC90 (Septoria tritici (St); read-out: Concentration at 90% Inhibition St, Septoria tritici): > 50 µg/mL
- MIC (C. albicans; read-out: MIC, C. albicans ATCC 90028, Table 3a, 3 replicates, MIC recorded at 48 h): 0.06 to 0.24 µg/mL (≈ 0.11 to 0.441 µM)
- MIC (C. albicans; read-out: MIC, C. albicans ATCC 90028, Table 3b (additional results), 3 replicates, MIC recorded at 48 h): 1.01 to 2 µg/mL (≈ 1.85 to 3.67 µM)
- IC90 ([2]; read-out: Concentration at 90% Inhibition Fv, Fusarium virguliforme, growth inhibition at 48 hours vs 2% DMSO control): 0.08 µg/mL (≈ 0.147 µM)
- IC90 ([3]; read-out: Concentration at 90% Inhibition Pc, Phytophthora capsici, growth inhibition at 48 hours vs 2% DMSO control): 10 µg/mL (≈ 18.4 µM)
- MIC (C. krusei; read-out: MIC, C. krusei ATCC 6258, Table 3a, 3 replicates, MIC recorded at 48 h): 0.06 to 0.24 µg/mL (≈ 0.11 to 0.441 µM)
- MIC (C. krusei; read-out: MIC, C. krusei ATCC 6258, Table 3b (additional results), 3 replicates, MIC recorded at 48 h): 0.25 to 1 µg/mL (≈ 0.459 to 1.84 µM)
- IC90 (Rhizoctonia solani (Rs); read-out: Concentration at 90% Inhibition Rs, Rhizoctonia solani, mycelial plugs, growth inhibition at 48 hours vs 2% DMSO control): 0.08 µg/mL (≈ 0.147 µM)
- IC90 ([4]; read-out: Concentration at 90% Inhibition Cg, Collectotrichum graminicola): 0.4 µg/mL (≈ 0.734 µM)

SMILES: COc1ccc(F)cc1[C@H](Cn1c(=O)n(C(C)(C)C(=O)N2CCCC2)c(=O)c2c(C)c(-n3nccn3)sc21)OCCC#N [Compound I-181]
- IC90 ([1]; Fusarium moniliforme, growth inhibition at 48 hours vs 2% DMSO control): 2 µg/mL (≈ 3.28 µM)
- IC50 (fungal (fACC2); Table 2b, additional results): 1 to 5 nM
- IC90 (Diplodia maydis (Dm); Diplodia maydis, read-out: Concentration at 90% Inhibition Dm): 2 µg/mL (≈ 3.28 µM)
- IC90 (Botrtyis cinerea (Bc); Botrtyis cinerea, read-out: Concentration at 90% Inhibition Bc): 2 µg/mL (≈ 3.28 µM)
- MIC (C. parapsilosis; Table 3b (additional results), ATCC 22019, 3 replicates, MIC recorded at 48 h, read-out: MIC, C. parapsilosis ATCC 22019): 1.01 to 2 µg/mL (≈ 1.66 to 3.28 µM)
- IC50 (human (hACC2); Table 2b, additional results): 5 to 10 nM
- IC90 (Septoria tritici (St); Septoria tritici, read-out: Concentration at 90% Inhibition St): > 50 µg/mL
- MIC (C. albicans; Table 3b (additional results), ATCC 90028, 3 replicates, MIC recorded at 48 h, read-out: MIC, C. albicans ATCC 90028): 2.01 to 4 µg/mL (≈ 3.3 to 6.56 µM)
- IC90 ([2]; growth inhibition at 48 hours vs 2% DMSO control, read-out: Concentration at 90% Inhibition Fv): 2 µg/mL (≈ 3.28 µM)
- IC90 ([3]; growth inhibition at 48 hours vs 2% DMSO control, read-out: Concentration at 90% Inhibition Pc): > 50 µg/mL
- MIC (C. krusei; Table 3b (additional results), ATCC 6258, 3 replicates, MIC recorded at 48 h, read-out: MIC, C. krusei ATCC 6258): 2.01 to 4 µg/mL (≈ 3.3 to 6.56 µM)
- IC90 (Rhizoctonia solani (Rs); mycelial plugs, growth inhibition at 48 hours vs 2% DMSO control, read-out: Concentration at 90% Inhibition Rs): 2 µg/mL (≈ 3.28 µM)
- IC90 ([4]; Collectotrichum graminicola, read-out: Concentration at 90% Inhibition Cg): 2 µg/mL (≈ 3.28 µM)
